Laboratory results published in paper PMC6281666.
No constants are given. Whether binding was seen depends on the method and setting. In cells and extracts the contact can be indirect. Some binding calls cover weakened binding; strength is not graded here.

Amino acid sequences for entries named in this document (tags omitted).
UniProt Q13158: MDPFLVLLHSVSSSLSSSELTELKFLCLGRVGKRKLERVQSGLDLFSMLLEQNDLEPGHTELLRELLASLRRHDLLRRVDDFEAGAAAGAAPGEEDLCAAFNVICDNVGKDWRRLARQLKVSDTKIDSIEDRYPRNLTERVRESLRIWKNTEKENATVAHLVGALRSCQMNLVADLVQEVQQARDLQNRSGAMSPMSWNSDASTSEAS

Tests used:
[1] = molecular target: T1, SEMA6A SEMA deletion mutant (6AΔsema, aa 513–1031) (human (cDNA from Hs68 foreskin fibroblasts)) (UniProt Q9H2E6); assay: co-IP; H1299 cells overexpressing His-tagged SEMA6A constructs; otherwise as in 293T cells (Fig. S5A–C)
T1 sequence: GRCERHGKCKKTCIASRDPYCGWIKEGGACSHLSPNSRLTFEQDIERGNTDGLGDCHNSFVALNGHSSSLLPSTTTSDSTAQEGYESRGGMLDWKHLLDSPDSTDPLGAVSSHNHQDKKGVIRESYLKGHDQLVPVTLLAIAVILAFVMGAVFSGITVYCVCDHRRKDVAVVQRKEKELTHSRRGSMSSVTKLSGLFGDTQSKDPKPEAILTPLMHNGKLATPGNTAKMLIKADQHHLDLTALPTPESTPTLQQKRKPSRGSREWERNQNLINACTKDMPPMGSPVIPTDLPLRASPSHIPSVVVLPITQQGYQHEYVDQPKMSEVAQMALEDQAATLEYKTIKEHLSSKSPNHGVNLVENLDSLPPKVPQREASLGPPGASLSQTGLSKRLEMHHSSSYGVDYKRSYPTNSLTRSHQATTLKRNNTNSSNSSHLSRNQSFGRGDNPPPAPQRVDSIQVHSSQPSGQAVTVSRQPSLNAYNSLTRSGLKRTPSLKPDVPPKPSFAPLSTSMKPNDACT

[2] = molecular target: T2, SEMA6A extracellular ectodomain construct (6Aect, aa 1–704) (human (cDNA from Hs68 foreskin fibroblasts)) (UniProt Q9H2E6); assay: as above
T2 sequence: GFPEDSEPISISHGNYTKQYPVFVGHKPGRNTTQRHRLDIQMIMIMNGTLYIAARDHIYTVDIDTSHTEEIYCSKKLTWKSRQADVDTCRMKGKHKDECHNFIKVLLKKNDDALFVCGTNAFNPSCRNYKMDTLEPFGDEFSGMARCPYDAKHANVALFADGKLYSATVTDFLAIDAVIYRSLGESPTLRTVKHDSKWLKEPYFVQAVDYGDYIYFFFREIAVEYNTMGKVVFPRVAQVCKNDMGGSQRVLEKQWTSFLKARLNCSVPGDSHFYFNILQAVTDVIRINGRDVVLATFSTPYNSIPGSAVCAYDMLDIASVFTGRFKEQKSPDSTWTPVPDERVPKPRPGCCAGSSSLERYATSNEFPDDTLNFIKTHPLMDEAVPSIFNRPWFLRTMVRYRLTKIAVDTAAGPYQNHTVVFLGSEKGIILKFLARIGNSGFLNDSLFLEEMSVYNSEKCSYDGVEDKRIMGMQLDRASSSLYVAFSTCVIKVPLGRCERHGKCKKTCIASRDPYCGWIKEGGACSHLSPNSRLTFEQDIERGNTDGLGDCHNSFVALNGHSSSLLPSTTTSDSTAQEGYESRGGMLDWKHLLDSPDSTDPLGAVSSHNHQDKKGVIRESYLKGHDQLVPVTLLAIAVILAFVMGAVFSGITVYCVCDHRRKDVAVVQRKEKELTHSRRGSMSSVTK

[3] = molecular target: T3, SEMA6A intracellular cytosolic domain construct (6Acyto, aa 575–1031) (human (cDNA from Hs68 foreskin fibroblasts)) (UniProt Q9H2E6); assay: as above
T3 sequence: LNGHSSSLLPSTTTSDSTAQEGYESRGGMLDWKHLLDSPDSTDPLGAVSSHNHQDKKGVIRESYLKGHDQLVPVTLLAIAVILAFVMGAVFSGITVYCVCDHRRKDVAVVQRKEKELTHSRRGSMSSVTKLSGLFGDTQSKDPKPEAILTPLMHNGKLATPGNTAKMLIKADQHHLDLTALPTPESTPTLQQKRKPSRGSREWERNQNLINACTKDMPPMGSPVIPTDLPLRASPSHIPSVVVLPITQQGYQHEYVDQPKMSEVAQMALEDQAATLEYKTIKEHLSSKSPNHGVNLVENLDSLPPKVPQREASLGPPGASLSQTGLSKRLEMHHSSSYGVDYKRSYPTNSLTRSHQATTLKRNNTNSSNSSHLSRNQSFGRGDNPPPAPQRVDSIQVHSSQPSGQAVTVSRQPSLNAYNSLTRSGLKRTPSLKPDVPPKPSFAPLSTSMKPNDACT

[4] = molecular target: T4, full length semaphorin 6A (6A-FL) (human (cDNA from Hs68 foreskin fibroblasts)) (UniProt Q9H2E6); assay: as above
T4 sequence: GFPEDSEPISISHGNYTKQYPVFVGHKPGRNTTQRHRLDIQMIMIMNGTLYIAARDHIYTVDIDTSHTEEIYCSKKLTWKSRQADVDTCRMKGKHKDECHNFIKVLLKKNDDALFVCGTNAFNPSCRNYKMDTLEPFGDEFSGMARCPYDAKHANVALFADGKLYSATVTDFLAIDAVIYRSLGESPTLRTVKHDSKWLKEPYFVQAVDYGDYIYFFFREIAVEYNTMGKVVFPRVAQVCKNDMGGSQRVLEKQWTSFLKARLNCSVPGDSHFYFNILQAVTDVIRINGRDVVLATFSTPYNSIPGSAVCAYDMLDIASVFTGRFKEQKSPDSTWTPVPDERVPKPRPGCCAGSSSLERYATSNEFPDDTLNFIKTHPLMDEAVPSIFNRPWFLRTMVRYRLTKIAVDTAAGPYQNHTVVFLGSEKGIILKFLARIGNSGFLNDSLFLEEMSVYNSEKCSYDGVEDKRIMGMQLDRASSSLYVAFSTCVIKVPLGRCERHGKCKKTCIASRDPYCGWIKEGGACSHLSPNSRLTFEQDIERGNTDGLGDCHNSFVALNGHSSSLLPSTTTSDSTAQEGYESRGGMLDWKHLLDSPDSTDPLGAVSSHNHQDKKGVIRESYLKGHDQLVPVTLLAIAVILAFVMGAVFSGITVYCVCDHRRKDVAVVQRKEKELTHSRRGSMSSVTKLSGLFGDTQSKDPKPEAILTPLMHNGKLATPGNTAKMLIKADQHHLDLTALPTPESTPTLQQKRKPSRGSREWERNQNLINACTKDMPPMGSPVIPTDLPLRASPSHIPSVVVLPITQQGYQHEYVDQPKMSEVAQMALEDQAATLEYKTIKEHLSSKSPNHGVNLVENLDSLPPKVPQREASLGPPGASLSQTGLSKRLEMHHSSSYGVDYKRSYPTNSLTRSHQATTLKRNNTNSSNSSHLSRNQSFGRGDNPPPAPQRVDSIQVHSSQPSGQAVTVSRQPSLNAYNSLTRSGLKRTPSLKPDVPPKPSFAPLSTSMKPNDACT

[5] = molecular target: T1, SEMA6A SEMA deletion mutant (6AΔsema, aa 513–1031) (human (cDNA from Hs68 foreskin fibroblasts)); assay: co-IP; 293T cells overexpressing His-tagged SEMA6A constructs for 48 h; Pierce IP lysis buffer; IP with rabbit anti-FADD or rabbit anti-SEMA6A at 4 °C for 16 h, magnetic beads; control rabbit IgG; blots with anti-FADD and anti-His
[6] = molecular target: T2, SEMA6A extracellular ectodomain construct (6Aect, aa 1–704) (human (cDNA from Hs68 foreskin fibroblasts)); assay: as above
[7] = molecular target: T3, SEMA6A intracellular cytosolic domain construct (6Acyto, aa 575–1031) (human (cDNA from Hs68 foreskin fibroblasts)); assay: as above
[8] = molecular target: T4, full length semaphorin 6A (6A-FL) (human (cDNA from Hs68 foreskin fibroblasts)); assay: as above
[9] = molecular target: T1, SEMA6A SEMA deletion mutant (6AΔsema, aa 513–1031) (human (cDNA from Hs68 foreskin fibroblasts)); assay: co-IP; co-IP of FADD with 6AΔsema or 6Acyto in the presence of added purified SEMA domain, with quantification (n = 3); cell line not stated
[10] = molecular target: T3, SEMA6A intracellular cytosolic domain construct (6Acyto, aa 575–1031) (human (cDNA from Hs68 foreskin fibroblasts)); assay: as above
[11] = molecular target: Fas-associated protein with death domain (FADD) (human (endogenous in 293T and H1299)) (UniProt Q13158); assay: co-IP; H1299 cells overexpressing His-tagged SEMA6A constructs; otherwise as in 293T cells (Fig. S5A–C)
[12] = molecular target: Fas-associated protein with death domain (FADD) (human (endogenous in 293T and H1299)) (UniProt Q13158); assay: co-IP; 293T cells overexpressing His-tagged SEMA6A constructs for 48 h; Pierce IP lysis buffer; IP with rabbit anti-FADD or rabbit anti-SEMA6A at 4 °C for 16 h, magnetic beads; control rabbit IgG; blots with anti-FADD and anti-His

Molecule | binding [1] | binding [2] | binding [3] | binding [4] | binding [5] | binding [6] | binding [7] | binding [8] | binding [9] | binding [10] | binding [11] | binding [12]
Fas-associated protein with death domain (FADD) (from UniProt Q13158 1-208) | binds | no binding | binds | no binding | binds | no binding | binds | no binding | binds | binds |  | 
SEMA6A SEMA deletion mutant (6AΔsema, aa 513–1031) (domain or fragment, UniProt Q9H2E6 513-1030) GRCERHGKCKKTCIASRDPYCGWIKEGGACSHLSPNSRLTFEQDIERGNTDGLGDCHNSFVALNGHSSSLLPSTTTSDSTAQEGYESRGGMLDWKHLLDSPDSTDPLGAVSSHNHQDKKGVIRESYLKGHDQLVPVTLLAIAVILAFVMGAVFSGITVYCVCDHRRKDVAVVQRKEKELTHSRRGSMSSVTKLSGLFGDTQSKDPKPEAILTPLMHNGKLATPGNTAKMLIKADQHHLDLTALPTPESTPTLQQKRKPSRGSREWERNQNLINACTKDMPPMGSPVIPTDLPLRASPSHIPSVVVLPITQQGYQHEYVDQPKMSEVAQMALEDQAATLEYKTIKEHLSSKSPNHGVNLVENLDSLPPKVPQREASLGPPGASLSQTGLSKRLEMHHSSSYGVDYKRSYPTNSLTRSHQATTLKRNNTNSSNSSHLSRNQSFGRGDNPPPAPQRVDSIQVHSSQPSGQAVTVSRQPSLNAYNSLTRSGLKRTPSLKPDVPPKPSFAPLSTSMKPNDACT |  |  |  |  |  |  |  |  |  |  | binds | binds
SEMA6A intracellular cytosolic domain construct (6Acyto, aa 575–1031) (domain or fragment, UniProt Q9H2E6 575-1030) LNGHSSSLLPSTTTSDSTAQEGYESRGGMLDWKHLLDSPDSTDPLGAVSSHNHQDKKGVIRESYLKGHDQLVPVTLLAIAVILAFVMGAVFSGITVYCVCDHRRKDVAVVQRKEKELTHSRRGSMSSVTKLSGLFGDTQSKDPKPEAILTPLMHNGKLATPGNTAKMLIKADQHHLDLTALPTPESTPTLQQKRKPSRGSREWERNQNLINACTKDMPPMGSPVIPTDLPLRASPSHIPSVVVLPITQQGYQHEYVDQPKMSEVAQMALEDQAATLEYKTIKEHLSSKSPNHGVNLVENLDSLPPKVPQREASLGPPGASLSQTGLSKRLEMHHSSSYGVDYKRSYPTNSLTRSHQATTLKRNNTNSSNSSHLSRNQSFGRGDNPPPAPQRVDSIQVHSSQPSGQAVTVSRQPSLNAYNSLTRSGLKRTPSLKPDVPPKPSFAPLSTSMKPNDACT |  |  |  |  |  |  |  |  |  |  | binds | binds
